Measured values as given in PMC4336329 (PLoS ONE, 2015).
Hit rate of the full screen: of about 310,000 compounds, about 14,000 (4.5%) showed an effect of 50% or more. Effects have a minus sign here. Some of the results follow.

biological target: human ether-à-go-go-related gene (hERG) potassium channel (human, UniProt Q12809); assay: primary screen, population patch clamp on CHO cells stably expressing hERG
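Also: peak tail current of the secondary pulse compared with the same well before compound.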

human ether-à-go-go-related gene (hERG) potassium channel, sequence (Q12809 whole entry, looked up): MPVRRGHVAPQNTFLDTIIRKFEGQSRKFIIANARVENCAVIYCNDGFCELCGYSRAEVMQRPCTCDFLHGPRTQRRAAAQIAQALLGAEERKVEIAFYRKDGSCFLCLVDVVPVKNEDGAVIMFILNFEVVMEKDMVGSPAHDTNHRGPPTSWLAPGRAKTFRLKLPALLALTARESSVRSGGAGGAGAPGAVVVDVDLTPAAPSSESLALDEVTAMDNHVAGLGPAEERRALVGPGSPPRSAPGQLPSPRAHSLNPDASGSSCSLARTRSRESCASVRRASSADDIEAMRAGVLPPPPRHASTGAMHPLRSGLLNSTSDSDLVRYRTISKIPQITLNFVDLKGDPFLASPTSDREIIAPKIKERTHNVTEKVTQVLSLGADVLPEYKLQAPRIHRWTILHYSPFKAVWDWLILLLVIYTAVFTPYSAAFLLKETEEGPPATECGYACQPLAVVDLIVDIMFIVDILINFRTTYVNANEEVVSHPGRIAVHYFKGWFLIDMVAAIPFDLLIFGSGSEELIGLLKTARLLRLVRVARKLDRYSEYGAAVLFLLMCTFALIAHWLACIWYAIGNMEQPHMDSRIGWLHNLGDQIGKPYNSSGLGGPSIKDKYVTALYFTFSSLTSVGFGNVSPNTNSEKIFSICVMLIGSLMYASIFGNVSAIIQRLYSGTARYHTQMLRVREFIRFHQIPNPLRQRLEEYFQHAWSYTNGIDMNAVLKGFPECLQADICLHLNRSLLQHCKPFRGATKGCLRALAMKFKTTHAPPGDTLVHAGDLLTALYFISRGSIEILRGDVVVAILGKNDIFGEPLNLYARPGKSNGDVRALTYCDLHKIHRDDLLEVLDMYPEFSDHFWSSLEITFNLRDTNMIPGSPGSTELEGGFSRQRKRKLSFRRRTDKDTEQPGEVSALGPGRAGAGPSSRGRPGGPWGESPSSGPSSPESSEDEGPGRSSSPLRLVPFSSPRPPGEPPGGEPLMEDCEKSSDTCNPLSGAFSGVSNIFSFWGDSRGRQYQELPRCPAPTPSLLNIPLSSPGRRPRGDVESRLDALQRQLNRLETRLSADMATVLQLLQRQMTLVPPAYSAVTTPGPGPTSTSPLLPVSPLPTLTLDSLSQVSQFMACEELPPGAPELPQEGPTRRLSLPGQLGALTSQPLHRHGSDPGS

Structure (SMILES)	hERG current change (%, negative = inhibition) at 10uM [%]
Clc1cccc(Cl)c1Cn1nnc(N2CCCC2)n1	4.97
CSc1ncc(CN2CCN(C3CCCCC3)C(CCO)C2)cn1 (stereo not drawn)	-16.9
COc1ccc(C2C(=O)N(C3CCCCC3)CC(=O)N2C2CCCC2)cc1 (stereo not drawn)	-12.1
Cc1c(NC(=O)C(C)OC(=O)c2cc(-c3cccc4ccccc34)nc3ccccc23)c(=O)n(-c2ccccc2)n1C (stereo not drawn)	-10.3
Cc1ccc(NC(=O)c2ccc3c(c2)CCN3S(C)(=O)=O)c(C)c1	-7.35
Nc1nc(CSc2n[nH]c(-c3ccccc3)n2)nc(Nc2ccccc2)n1	-15.4
COc1cccc(-n2c(-c3ccccc3)c[nH]c2=S)c1	24.4
Cc1cc(NC(=O)CSc2ccc3nnc(-c4cccs4)n3n2)no1	-42.8
O=C1CC(NN2CCCCC2)C(=O)N1c1ccccc1 (stereo not drawn)	-3.51
C[C@H](NC(=O)OCc1ccccc1)C(=O)NNC(=O)[C@H](Cc1ccccc1)NC(=O)OC(C)(C)C	31.2
COc1ccc(-c2cc(=O)oc3c(C)c(OCC(=O)NCCCn4ccnc4)ccc23)cc1	-63.8
CC(C)C(=O)Nc1nnc(CCN2CCCCC2)s1	1
COc1cccc(-n2cc(CN(C)Cc3nc(Cc4ccccc4)no3)cn2)c1	-37.9
O=C(CSCc1nc2ccccc2[nH]1)N1CCN(c2cccc(Cl)c2)CC1	-9.81
Cc1nc2nc(C)c(NS(=O)(=O)c3ccc(Cl)s3)c(=O)n2[nH]1	16.3
O=C1CC(=O)N(c2cccc(Cl)c2)C(=O)N1	-1.2
COc1ccc(-n2nc(C(=O)NCC(=O)NCCCN3CCOCC3)c3ccccc3c2=O)c(OC)c1	22.2
CCN(CC)C(=O)N1CCC(NC(=O)c2ccccc2)CC1	12.6
Cc1ccc(C(=O)N/C(=C\c2ccc(F)cc2)C(=O)NCCCn2ccnc2)cc1	-77.5
Cc1ccc2[nH]c3c(=O)n(CC(=O)N4CC(C)CC(C)C4)ncc3c2c1 (stereo not drawn)	6.32
COc1ccc(C(CCNCc2ccc(N(C)C)cc2)c2ccccc2OC)cc1 (stereo not drawn)	-71.1
O=C(NNC(=O)c1cc(-c2ccc(Cl)cc2Cl)nc2ccccc12)Nc1ccccc1	1.72

Structure (SMILES)	hERG current change (%, negative = inhibition) at 10uM [%]
CC(NC(=O)CCNC(=O)N1CCn2c1nc1ccccc12)c1ccccc1 (stereo not drawn)	-4.17
CCOc1cccc(OCCOc2ccccc2[N+](=O)[O-])c1	0.403
CC(NS(=O)(=O)c1ccc(Cl)cc1)C(=O)NCCC1=CCCCC1 (stereo not drawn)	-5.41
CC1Cc2ccccc2N1Cc1nc2scc(-c3cccs3)c2c(=O)[nH]1 (stereo not drawn)	25.2
CCOc1cc(/C=N/NC(=O)CN2CCCCC2)ccc1OCc1ccc(Cl)cc1	7.37
O=C(Cc1ccccc1)Nc1ccc(Cl)cn1	16.6
CCOc1ccccc1C(c1c(C)n(C)n(-c2ccccc2)c1=O)c1c(C)n(C)n(-c2ccccc2)c1=O	-5.61
O=C(CSc1ncc(-c2ccccc2)nn1)NCc1ccco1	-23.6
COc1ccc(NC(=O)N2CCCC2C(=O)NCc2ccc(F)cc2)cc1 (stereo not drawn)	-4.28
CC(C)c1nnc(NC(=O)Cc2ccccc2[N+](=O)[O-])s1	11
CS(=O)(=O)N1CCC(C(=O)Nc2ccc(Br)cc2F)CC1	5.01
CC1=CC(C)(C)N(S(=O)(=O)c2ccc(C)cc2)c2ccc(C)cc21	-5.9
CCO[C@@H]1OC(C(=O)N2CCN(Cc3ccc4c(c3)OCO4)CC2)=C[C@H](c2ccc3c(c2)OCO3)[C@H]1CCCO	-23.2
CC1CCCN(S(=O)(=O)c2cc3c4c(c2)C(C)C(=O)N4CCC3)C1 (stereo not drawn)	14.6
O=C(Nc1ccc(-c2nnc(-c3ccccc3)o2)cc1)c1ccc(Br)o1	-7.92
CS(=O)(=O)N(CC(=O)NC1CCCC1)c1ccc(Oc2ccccc2)cc1	-2.69
CC(=O)Nc1ccc2nc(NC(=O)COc3ccccc3C)sc2c1	-0.0372
O=c1cc(O)c2sc3nc(-c4cccnc4)cc(C(F)(F)F)c3c2[nH]1	2.76
CC1CCC(N2CCN(c3ccc([N+](=O)[O-])cc3)CC2)CC1 (stereo not drawn)	-74.8
Cc1ccc(NS(=O)(=O)c2ccc(CCC(=O)NCCO)cc2)cc1	-1.96
CN1CCc2c(OCc3ccc(F)cc3)cccc2C1=O	-11.4
Cl.O=S(=O)(NCCN1CCOCC1)c1ccc(Cl)s1	24

Structure (SMILES)	hERG current change (%, negative = inhibition) at 10uM [%]
O=C(CCN1CCOCC1)c1ccc(N2CCCCC2)cc1.[Br-]	-2.06
Cc1ccc(CN(Cc2cccnc2)C(=S)Nc2cccc(Cl)c2C)cc1	8.32
CC(C)(C)c1ccc(NC(=O)N2CCN(c3ccc([N+](=O)[O-])cn3)CC2)cc1	-9.81
COc1cccc(OCc2nnc(SCC(=O)NCc3ccco3)n2CCc2ccccc2)c1	-44.6
O=C(NCCOc1ccccc1)C1CCC(=O)N(CCN2CCOCC2)C1 (stereo not drawn)	24.7
Cc1nnsc1NC(=O)OCc1ccc(C(F)(F)F)cc1	-8.15
CC1CC(C)CN(C(=O)CCC(=O)Nc2nnc(C(C)C)s2)C1 (stereo not drawn)	12.6
O=C(O)c1ccc(Nc2ncnc3c2cnn3Cc2ccccc2)cc1	22.8
NS(=O)(=O)c1ccc(N/N=C/c2ccccn2)c([N+](=O)[O-])c1	23.2
O=C1C(c2ccccc2)=C(N2CC2)c2ccccc21	3.53
O=C(NC(=S)Nc1ccc2ncccc2c1)c1ccccc1	2.36
c1ccc2sc(N3CCCN(Cc4nc(-c5cnccn5)no4)CC3)nc2c1	-35.8
CC(C)C(=O)OCC(=O)Nc1ccc2c(c1)CCC2	12.5
CCCN(Cc1nnc(-c2ccccc2Cl)o1)C(=O)c1cc(S(=O)(=O)N2CCOCC2)ccc1F	-47.7
O=C(c1cc2ccccc2oc1=O)N1CCN(CCc2ccccc2)CC1	-71.8
Cc1cccc(C)c1NC(=O)COC(=O)C1Cc2ccccc2CN1C(=O)c1ccccc1 (stereo not drawn)	-6.54
O=C(c1ccc2c(=O)n(Cc3ccccc3)c(=S)[nH]c2c1)N1CCOCC1	26.9
C=CCNC(=S)N1CCN(CCNC2=CC(=O)CC(C)(C)C2)CC1	28.7
COc1ccc(/C(C)=N/OC/C(O)=C(\C#N)c2nc3ccccc3[nH]2)c(OC)c1	17.6
CC1CCN(S(=O)(=O)c2csc(C(=O)Nc3ccccc3)c2)CC1	-0.558
CSc1nc(C)cc(OCC#N)n1	9.22
Cc1cc(C)n(-c2nc3ccccc3n3nnnc23)n1	3.15

Structure (SMILES)	hERG current change (%, negative = inhibition) at 10uM [%]
CCN(CC(=O)Nc1cc(C)c(Cl)cc1OC)CC(=O)NC1CCS(=O)(=O)C1 (stereo not drawn)	15.2
O=C1c2ccccc2C(=O)N1CCCCN(C(=O)c1ccc([N+](=O)[O-])cc1)c1ccc(Cl)cc1	-3.93
C=CCn1c(SCC(=O)c2c(C)[nH]c3ccccc23)nnc1-c1ccncc1	21.3
COC(=O)C1CN(S(=O)(=O)c2cc(OC)ccc2OC)CCS1 (stereo not drawn)	13.6
COc1ccc(N2CCN(C(=O)c3sc4ncn(CC(=O)N5CCCCC5)c(=O)c4c3C)CC2)cc1	-12.9
CCOC(=O)CCc1c(C)nc2c(c(C)nn2-c2ccc(C)cc2)c1C	20.4
c1ccc(-c2nc(-c3nccc4ccccc34)oc2-c2ccccc2)cc1	-6.54
CC(C(=O)Nc1ccccc1F)N1C(=O)c2ccccc2C1=O (stereo not drawn)	4.21
Cc1cc(C)nc(Sc2c(C)nn(-c3ccccc3)c2C)n1	-1.91
O=C(CSc1nnc(SCc2ccc(F)cc2)s1)Nc1ccc(C(=O)O)cc1	18.6
Oc1ccc(C[C@@H]2CNC(=S)N2CCCCC2CCCCC2)cc1	14.3
CCCn1cc(S(=O)(=O)c2ccccc2)c(=O)c2cc(F)c(N3CCN(C)CC3)cc21	-8.34
O=c1[nH]c2sc3c(c2c2nncn12)CCCC3	1.69
CCOC(=O)COc1ccccc1/C=C\[N+](=O)[O-]	-2.07
COC(=O)c1ccc(NC(=O)Cc2ccc(F)cc2)cc1	30.6
COc1cc2ccccc2cc1C(=O)Nc1ccc(N2CCN(C(=O)C(C)C)CC2)cc1	16.3
CCC1(CC)NC(=O)N(CC(=O)Nc2ccc(S(=O)(=O)N3CCOCC3)cc2)C1=O	-2.22
O=C(CSc1nc2ccccc2[nH]1)NCC1CCCO1 (stereo not drawn)	13.6
O=C(Nc1ccc(Cl)cc1)NC1CCS(=O)(=O)C1 (stereo not drawn)	-8.68
O=C(Nc1ccc(F)c(Cl)c1)Nc1csc2ccccc12	20.2
CCCC(=O)Nc1sc(C(=O)Nc2cccc(N)c2)c(C)c1C(=O)OC	-2.58
